Reference: PubChem BioAssay AID1345082 (National Center for Advancing Translational Sciences (NCATS), 2018)
The whole screen tested about 94,000 compounds, of which about 4,000 (4.3%) were called active. Inconclusive means that the source gave no clear call. Such entries were picked first, then a sample of the others. Calls follow the shape of the dose curve; as a rule, active = well fitted inhibition curve with a large enough effect; inconclusive = small, poorly fitted or top-dose-only effect; inactive = no such curve, though single readings can be large or run the other way. Where the call is inconclusive, the potency comes from a doubtful curve fit.

assay: Cytotoxic Profiling in NIH 3T3 Cell Line of Diverse Libraries Using Quantitative High-Throughput Screening; conditions: NIH 3T3 viability, CellTiter-Glo ATP luminescence, 48-72 h; series mostly up to 96.7 µM; also: nearly all actives have a fitted effect of over 55% in size
Method in brief: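 NIH 3T3 cells at 400 cells/well received 23 nL of compound by pintool and were incubated 48 or 72 h at 37 °C. Viability was read as ATP-coupled CellTiter-Glo luminescence.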
Potency is read from the fitted curve at half-maximal effect; tags tell the direction and shape of the fitted curve.

SMILES	Potency
O=C(NC1CCN(c2cc(-c3ccccc3)[nH]n2)CC1)c1cccc(Cl)c1	inconclusive: 20 µM [inhibitor, full curve]
Cc1cc(C)c(CNC(=O)c2nc(-c3cnn(C)c3)cc3c2ccn3C)c(=O)[nH]1	inconclusive: 39.8 µM [inhibitor, full curve]
O=C(CC1CCCCC1)N1CCC(c2noc(COc3ccc(F)cc3)n2)CC1	inconclusive: 44.7 µM [inhibitor, partial curve]
O=C(NCCc1ccccc1)C1CCN(c2nccc(Nc3ccccc3F)n2)CC1	inconclusive: 44.7 µM [inhibitor, partial curve, poor fit]
O=C(CN1C(=O)C(c2ccccc2)=NC12CCCC2)N1CCc2ccccc21	inconclusive: 12.6 µM [inhibitor, full curve]
COc1ccccc1N1CCN(c2ncccc2CNC(=O)c2ccoc2)CC1	inactive
O=C1Cc2c(-c3ccc4c(c3)OCO4)n[nH]c2CN1Cc1ccccc1	inconclusive: 8.91 µM [inhibitor, full curve, poor fit]
CN(CC#N)C(=O)c1cc(-c2ccccc2F)nc2c1cnn2C	inconclusive: 89.1 µM [inhibitor, partial curve]
COc1ccc(C(=O)N2CCCC(C(=O)N3CCC(c4nc5ncccc5[nH]4)CC3)C2)cc1 (stereo unspecified)	inactive
Cc1cnc(CC2CCN(S(=O)(=O)c3ccccc3)CC2)n1Cc1ccccc1	inconclusive: 56.2 µM [inhibitor, partial curve, poor fit]
COc1ccc(OCC2CCN(CC3(O)CCCNC3)CC2)cc1 (stereo unspecified)	active: 44.7 µM
COCCOCC(=O)N1CC(Oc2ccc(-c3noc(-c4ccccc4)n3)cc2)C1	inconclusive: 50.1 µM [inhibitor, partial curve, poor fit]
CCOC(=O)C1CCCN(C(=O)c2ccc3oc(-c4ccncc4)nc3c2)C1 (stereo unspecified)	inconclusive: 39.8 µM [inhibitor, partial curve, poor fit]
O=C(NCc1ccccn1)c1cccc(OC2CCN(c3cnccn3)CC2)c1	inconclusive: 50.1 µM [inhibitor, partial curve, poor fit]
O=C(CCCc1c[nH]c2ccccc12)N1CCN2CCS(=O)(=O)N(C3CC3)C(=O)C2C1 (stereo unspecified)	inactive
O=C(Nc1cccc(F)c1)Nc1ccc2n(c1=O)C[C@H]1C[C@@H]2CN(C(=O)c2ccc(F)cc2)C1	inconclusive: 50.1 µM [inhibitor, partial curve, poor fit]
Cc1ccc(CN2CCOC[C@H]2c2ncc(C(C)(C)C)[nH]2)cc1	active: 100 µM
COc1cccc(-c2noc(CC3CCN(C(=O)c4ccc(F)c(F)c4)CC3)n2)c1	inconclusive: 28.2 µM [inhibitor, partial curve, poor fit]
CCc1nc2c(=O)n(CC(=O)N3CCN(c4cc(C)ccc4C)CC3)nc(C)c2s1	inconclusive: 44.7 µM [inhibitor, partial curve, poor fit]
Cc1ccc(OCc2nc(C3CN(C(=O)Cc4ccccc4F)C3)no2)cc1	inconclusive: 50.1 µM [inhibitor, partial curve, poor fit]
COc1ccc(N2CCN(C(=O)c3noc(-c4ccc(C)cc4)n3)CC2)cc1	inconclusive: 50.1 µM [inhibitor, single point]

SMILES	Potency
COc1ccc(NC(=O)C2CCc3nnc(C4CC4)n32)cc1 (stereo unspecified)	inactive
COCCN1C(=O)CC[C@@]2(C(=O)N3CCOCC3)CCCC[C@H]12	inactive
Cc1ccc(NC(=O)N2CCC(N3C(=O)C4(CCCCC4)C3c3ccncc3)CC2)cc1C (stereo unspecified)	inconclusive: 50.1 µM [inhibitor, partial curve, poor fit]
CCOC(=O)c1cccc(NCC2=CC(C)(C)Oc3ccc(OC)cc32)c1	inconclusive: 28.2 µM [inhibitor, full curve]
CS(=O)(=O)N1CC2(CCCN2Cc2cccc(C(N)=O)c2)Cc2ccccc21 (stereo unspecified)	inactive
Cc1ccc(C(=O)N2CC(Oc3ccc(F)cc3F)C2)cc1	inactive
NC(=O)C1CCN(CC[C@H]2CN(C(=O)Nc3ccc(OC(F)(F)F)cc3)CC[C@H]2CC(=O)O)CC1	inactive
COc1ccc2nc([C@H]3CCN(Cc4ccccc4)C3)[nH]c2c1	inconclusive: 112 µM [inhibitor, single point]
CCN(C(=O)CN1C(=O)NC(c2ccc(C)cc2)C2=C1COC2=O)c1cccc(C)c1 (stereo unspecified)	inactive
CCOc1ccc(CC(=O)N2CCC(Cc3nc(-c4ccccc4)no3)CC2)cc1	inconclusive: 44.7 µM [inhibitor, partial curve, poor fit]
c1ccc(-n2cc(CN3CCC(Oc4ccncc4)CC3)nn2)cc1	inconclusive: 25.1 µM [inhibitor, full curve]
COCCNC(=O)[C@H]1C[C@H](Oc2ccccc2)CN1C(=O)NC(C)C	inactive
CCc1ccc(S(=O)(=O)c2nnn3c2nc(NCc2ccc(F)cc2)c2ccccc23)cc1	inconclusive: 70.8 µM [inhibitor, single point]
CC(C)c1nc(C(=O)N2CCC(CCC(=O)Nc3ccc4c(c3)OCCO4)CC2)cs1	inconclusive: 89.1 µM [inhibitor, partial curve, poor fit]
CCN1c2cc(C(=O)Nc3ccc(C)cc3Cl)ccc2C(=O)N2CCCCCC21 (stereo unspecified)	inconclusive: 50.1 µM [inhibitor, partial curve, poor fit]
O=C1N(CCc2ccccc2)CCOC12CCN(Cc1ccc(F)c(Cl)c1)CC2	active: 44.7 µM
Cc1cccc(-c2cnc3n[nH]c(-c4ccccc4)c3n2)c1	inconclusive: 50.1 µM [inhibitor, full curve, poor fit]
Cn1ncc2c(C(=O)NC3CC3)cc(-c3ccc(C(F)(F)F)cc3)nc21	inconclusive: 44.7 µM [inhibitor, partial curve, poor fit]
CO[C@H]1C(=O)N(C(C)C)[C@H]1C1CCN(C(=O)CCn2cccn2)CC1	inactive
CC(C)CCC(=O)NC1CCN(c2cnn(CC3CC3)c(=O)c2)CC1	inactive
